This passage reports binding signal results from article PMC12136788.

Some of the results follow.

B1: chr1:201892154:201892255:+|3pUTR|ENSG00000198892|msi1|total|mutant (ssRNA)
RNA: GGGAGUUCUACAGUCCGACGAUCUGUUUGUCCCCUCUGGGCUGGGGUGGGGGGAGGGAGGAGGUUCCGUCAGCAGCUGGCAGCCGCCCUCCUCUCUGGCUGCCCCACUGGCCACAUCUCUGGCCUGCCCGAUUAAAGCUGUAACAACAGAGGAUUGAGCAUCA
B2: chr12:27081967:27082483:-|CDS|ENSG00000214700|control|control|control (ssRNA)
RNA: GGGAGUUCUACAGUCCGACGAUCGAGAACAAAACUGUCUGUUGGCAAACUGAAUAAUCUUGUGCAAGAGUUUCAGAUAUUUCUAGAAAAUCUGAAAGAUGAUGACGCUGUAUUUCCUGAAACUGCUCAGCAAGAUUUCCAGCUCAACAGAGGAUUGAGCAUCA
B3: chr6:105096826:105097152:-|3pUTR|ENSG00000112276|msi1|FALSE|unique (ssRNA)
RNA: GGGAGUUCUACAGUCCGACGAUCACUUGCAACCUAGUUUUAAAAUACAUGAGGAUUUUAUGAAAGCUUUAUACAGACAUUUAUAGGAAACUCAUUCUUUGAUUUUAGGUGCCAUUUAAAUUGAUAACACUUACUUUAUAAAAACAACAGAGGAUUGAGCAUCA
B4: chr15:32738025:32738127:+|3pUTR|ENSG00000166923|unk|total|mutant (ssRNA)
RNA: GGGAGUUCUACAGUCCGACGAUCGGAUAUCUGCUGUCACUAUUUUUAUUCAAUAUUAUACUGGAGGUUCUACCCCGGGUAAUCCGGCAAAAAAAAAAAAAAAAAAAAAAAAAAAAAAAAAAAAAAAAAAAAAAAAAAGAAAAGCAACAGAGGAUUGAGCAUCA
B5: chr16:23064695:23064796:-|3pUTR|ENSG00000103404|msi1|FALSE|unique (ssRNA)
RNA: GGGAGUUCUACAGUCCGACGAUCGUUUAUGGAGGGCCUUCUUUGAGCACAGAGGCAAAACUGAAAGCUUCAGGGAUUUGCUGUAGCUGAGGAGCCCUGGGAGCACAGCCCAUCAAGCAAGGGAUGUGAUGGUGUCCUAAAUGGCAACAGAGGAUUGAGCAUCA
B6: chr14:88572724:88572825:+|CDS|ENSG00000100722|unk|total|mutant (ssRNA)
RNA: GGGAGUUCUACAGUCCGACGAUCGUGACACUUACAUAUGGUUCUUCUCGCCCUUCUAUUGAAAUUUAUCGACCACCUGCAAGCCGAAAUGCAGACCGUGGUGUUCAUUUAAACAGGUUGCAAUUUCAACAGCAGCAGAACCGUCAACAGAGGAUUGAGCAUCA
B7: chr19:49662424:49662617:-|CDS|ENSG00000126456|control|control|control (ssRNA)
RNA: GGGAGUUCUACAGUCCGACGAUCGUUACUGGGUAACAUGGUGUUGGCCCCACUCCCAGAUCCGGGACCCCCAAGCCUGGCUGUAGCCCCUGAGCCCUGCCCUCAGCCCCUGCGGAGCCCCAGCUUGGACAAUCCCACUCCCUUCAACAGAGGAUUGAGCAUCA
B8: chr1:45741042:45741143:-|CDS|ENSG00000197429|msi1|FALSE|unique (ssRNA)
RNA: GGGAGUUCUACAGUCCGACGAUCUGCCAUGAUCUCUUGGAAUUCUCAGAAAACUACAUUCAUGUCCAUUUCUUGGAGGUUCAUAGUGGAGAAGAGUUCCUGGCACUUACGAAAGAUCAGCUGAUCAAAAUUUUGCGAAGUGAACAACAGAGGAUUGAGCAUCA
B9: chr17:5384886:5384987:+|3pUTR|ENSG00000029725|unk|total|mutant (ssRNA)
RNA: GGGAGUUCUACAGUCCGACGAUCGGUUUAAGACCCGUCCCUUGGAUAAGCCCCAAGCGAAUUUGUCUUCAGAUUAUUAAAAUCCGUGCUGUAAAUCAGGGUGGGCAAUUCACAGCCUUUCUGAACUGACUGAACCCGAGCUUGCAACAGAGGAUUGAGCAUCA
B10: chr3:62294290:62294391:+|3pUTR|ENSG00000144724|msi1|total|mutant (ssRNA)
RNA: GGGAGUUCUACAGUCCGACGAUCAACCCGUCCUCUAAAAAUUCCCUAUUACUCCUACCGCAAUCUAAUAAAAACUACCUACACCGUUACUGUUUUCUUUCCUUCUUUGCCAAAUGUUUUAUAAUAAAUCUCUUAAUUACAUACCAACAGAGGAUUGAGCAUCA
B11: chr4:109463114:109463221:+|CDS|ENSG00000138802|unk|FALSE|unique (ssRNA)
RNA: GGGAGUUCUACAGUCCGACGAUCAGGAGCACAGCAGUUGUACAGCAGGGGUCCUCCUGCCCCUCAUAUUGUGGGAUCCACUCUAGGAUCUUUCCAAGGUGCUGCAUCGUCAGCAUCCCAUUUGCAUACGAGUGCCUCCCAACCCAACAGAGGAUUGAGCAUCA
B12: chr12:6238111:6238124:+|3pUTR|ENSG00000010278|msi1_unk|total|mutant (ssRNA)
RNA: GGGAGUUCUACAGUCCGACGAUCUGUUUGUUUUUGCUUGUUAUAUUAAGCAGAAAUCCUGCAAUGAAAGGUACUAUAUUUGCCCGACUCCCGACAAGAUAUUGUACAUAAAAGAAUUUUUUUGUCUUUAAACCGAUACAAAUGCAACAGAGGAUUGAGCAUCA
B13: chr16:67976092:67976228:-|CDS|ENSG00000141096|control|control|control (ssRNA)
RNA: GGGAGUUCUACAGUCCGACGAUCCCUCAGGGGCUGGAGGAUGUGUCCACAUACCCAGUCCUGAUAGAGGAGUUGCUGAGUCGUAGCUGGAGCGAGGAAGAGCUUCAAGGUGUCCUUCGUGGAAACCUGCUGCGGGUCUUCAGACAACAGAGGAUUGAGCAUCA
B14: chr19:10683396:10683509:+|CDS|ENSG00000129351|unk|FALSE|bound_elsewhere (ssRNA)
RNA: GGGAGUUCUACAGUCCGACGAUCGUUCCAAGGUGCUGGUUCCAACAAAAAGGUGGCGAAGGCCUACGCUGCUCUUGCUGCCCUAGAAAAGCUUUUCCCUGACACCCCUCUCGCCCUUGAUGCCAACAAAAAGAAGAGAGCCCCCAACAGAGGAUUGAGCAUCA
B15: chr7:41967724:41967825:-|CDS|ENSG00000106571|msi1|FALSE|bound_elsewhere (ssRNA)
RNA: GGGAGUUCUACAGUCCGACGAUCCCCCAUCAGCAACUAUUCCAACAGUGGGCUCGAGCUUCCUCUGACCGAUGGAGGUAGUAUAGGAGACCUCAGUGCCAUCGAUGAAACCCCAAUCAUGGACUCAACCAUUUCCACUGCAACCAACAGAGGAUUGAGCAUCA
B16: ENSG00000070961:be:win_6151|3pUTR|ENSG00000070961|bound_else_gene|NA|bound_elsewhere_windowed (ssRNA)
RNA: GGGAGUUCUACAGUCCGACGAUCCAAUCACUUUUUCUCUUUUAUCCUCUAACCAAAAAAUUGUUUAAUUUUGCAUCCCAAAUGUUUUUAAUCUUUGUAUAUUUUUUAAAAAUCCUUUUCUCCUCAUCAUUGCCUUUUUUGUGGCAACAGAGGAUUGAGCAUCA
B17: chr22:27980698:27980799:-|3pUTR|ENSG00000100154|unk|total|mutant (ssRNA)
RNA: GGGAGUUCUACAGUCCGACGAUCUAACCAUUAAUUUAUUUUAUAAAGAAAGGAAAUGCUGAAAGUCGUAUCCGUACUGAGUUCCGUUGGAGAAUUCCGAUAAGUAAGUAUCUUUCCGGUAAUUCUAAAAUUAAAAUCCUACCCCAACAGAGGAUUGAGCAUCA
B18: ENSG00000136451:be:win_1401|CDS|ENSG00000136451|bound_else_gene|NA|bound_elsewhere_windowed (ssRNA)
RNA: GGGAGUUCUACAGUCCGACGAUCCACCCCCGUCACUGCCCCAGUGAAUAUAGCACACCCUGUCACCAUCACAUCUCCAAUGAAUCUACCCACACCUAUGACAUUAGCCGCCCCUCUCAAUAUAGCAAUGAGACCUGUAGAGAGCAACAGAGGAUUGAGCAUCA
B19: chr12:6965432:6965572:-|3pUTR|ENSG00000215021|unk|total|mutant (ssRNA)
RNA: GGGAGUUCUACAGUCCGACGAUCUGCGAUGGUCCCCCACACCGGUUCCCUGAACCCCUCUUGGAUUAAGGAAGACUGAAGACCCGCCCCUUUUCUGGGGAAUUACUUUCCUCCUCCCUGUGUUAACUGGGGCUGUUGGGGACACAACAGAGGAUUGAGCAUCA
B20: chr19:12699869:12699961:-|3pUTR|ENSG00000105576|msi1_unk|FALSE|overlapping (ssRNA)
RNA: GGGAGUUCUACAGUCCGACGAUCGAGGGUGGGGGUGUAGUUACUUCCCAGUUGGCCAGAAAACUGGGCCUUGCAGACCCCCUUAGCAUUUUUUCCCUUUUUUUCCUUCCCUGCUUUCUACUUCUUUGGGGAGCCCCUUGUGUUCAACAGAGGAUUGAGCAUCA
B21: ENSG00000124766:be:win_2801|3pUTR|ENSG00000124766|bound_else_gene|NA|bound_elsewhere_windowed (ssRNA)
RNA: GGGAGUUCUACAGUCCGACGAUCUUUUUCCUUCACCGAUGCUCCAUCCUCGUAUUUCUUUUUCCUUGUAAAUGUAAUCAGAUGCCAUUUUAUAUGUGGACGUAUUUAUACUGGCCAAACAUAUUUUUUCUUUUGUCCCUUUUUCAACAGAGGAUUGAGCAUCA
B22: chr3:179334266:179334377:+|CDS|ENSG00000121864|unk|total|mutant (ssRNA)
RNA: GGGAGUUCUACAGUCCGACGAUCUUAUUUAUGUCAAUAUUGUGAAUAUUCAACAGGACAAAUUGAAGAUCUUAAAAUUCAUCCCGAUUUCAAGCAUUCAGCUGACUUGCCUCAUAAAUGCCGUGACUGCUUGAUGAGGUUUGGCAACAGAGGAUUGAGCAUCA

The target of the assay is MSI1 full-length (mouse, UniProt Q61474 1-362). The assay is described as follows: nsRBNS (natural sequence RNA bind-n-seq); RBNS binding buffer (assumed for nsRBNS): 25 mM Tris pH 7.5, 150 mM KCl, 3 mM MgCl2, 0.01% Triton X-100, 500 ug/ml BSA, 20 U/ml SUPERase-In, 4 C; UNK is unkempt and MSI1 is Musashi-1; names of the RNAs are library labels; protein concentration not given here; high values mean tight binding.
Chain of UniProt Q61474 (Q61474 whole entry): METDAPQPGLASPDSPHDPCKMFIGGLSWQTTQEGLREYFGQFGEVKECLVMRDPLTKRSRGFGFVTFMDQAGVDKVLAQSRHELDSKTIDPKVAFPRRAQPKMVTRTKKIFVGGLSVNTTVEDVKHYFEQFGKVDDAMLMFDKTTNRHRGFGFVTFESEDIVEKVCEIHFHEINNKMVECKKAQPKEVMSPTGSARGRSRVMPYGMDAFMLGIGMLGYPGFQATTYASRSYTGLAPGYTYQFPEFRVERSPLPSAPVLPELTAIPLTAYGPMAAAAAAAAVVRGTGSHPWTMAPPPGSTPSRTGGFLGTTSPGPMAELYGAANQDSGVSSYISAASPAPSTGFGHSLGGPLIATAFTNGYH
As for B1, the binding signal stood at 0.451 enrichment R.

The molecule B2 came in with a binding signal of 0.236 enrichment R.

B3 had a binding signal of 1.13 enrichment R.

As for B4, the binding signal is 0.986 enrichment R.

Turning to B5, the binding signal is 0.522 enrichment R.

In the case of B6, the binding signal was found to be 0.415 enrichment R.

Turning to B7, the binding signal was 0.637 enrichment R.

B8 came in with a binding signal of 0.171 enrichment R.

Consider B9, for which the binding signal stood at 0.297 enrichment R.

With B10, the binding signal came out at 8.49 enrichment R.

Turning to B11, the binding signal was 0.442 enrichment R.

B12 returned a binding signal of 0.379 enrichment R.

Take B13: the binding signal turned out to be 0.423 enrichment R.

Molecule B14 registered a binding signal of 0.717 enrichment R.

Turning to B15, the binding signal was 0.819 enrichment R.

For B16, the binding signal worked out at 3.25 enrichment R.

For B17, the binding signal was determined as 0.561 enrichment R.

Molecule B18 showed a binding signal of 5.67 enrichment R.

As for B19, the binding signal was determined as 0.45 enrichment R.

The molecule B20 came in with a binding signal of 1.19 enrichment R.

Consider B21, for which the binding signal came out at 2.78 enrichment R.

Turning to B22, the binding signal worked out at 0.18 enrichment R.
